In paper PMC6919601, “Identification of Plasmodium dipeptidyl aminopeptidase allosteric inhibitors by high throughput screening” (PLoS ONE, 2019):
Screen size: about 110,000 compounds; about 230 (0.21%) showed an effect of 50% or more. The list shows a part of the results.

These molecules were tested against DPAP1 (Plasmodium falciparum, UniProt Q8IIJ9) (assay: primary screen, percent inhibition; read by cleavage of a fluorogenic dipeptide substrate; higher = more effect of the substance).
Parameters: species or system P. falciparum D10 trophozoite lysates; single well
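Further: 30 min substrate incubation versus DMSO and 10 µM JCP410 controls.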

Chain of DPAP1 (Q8IIJ9 whole entry, looked up): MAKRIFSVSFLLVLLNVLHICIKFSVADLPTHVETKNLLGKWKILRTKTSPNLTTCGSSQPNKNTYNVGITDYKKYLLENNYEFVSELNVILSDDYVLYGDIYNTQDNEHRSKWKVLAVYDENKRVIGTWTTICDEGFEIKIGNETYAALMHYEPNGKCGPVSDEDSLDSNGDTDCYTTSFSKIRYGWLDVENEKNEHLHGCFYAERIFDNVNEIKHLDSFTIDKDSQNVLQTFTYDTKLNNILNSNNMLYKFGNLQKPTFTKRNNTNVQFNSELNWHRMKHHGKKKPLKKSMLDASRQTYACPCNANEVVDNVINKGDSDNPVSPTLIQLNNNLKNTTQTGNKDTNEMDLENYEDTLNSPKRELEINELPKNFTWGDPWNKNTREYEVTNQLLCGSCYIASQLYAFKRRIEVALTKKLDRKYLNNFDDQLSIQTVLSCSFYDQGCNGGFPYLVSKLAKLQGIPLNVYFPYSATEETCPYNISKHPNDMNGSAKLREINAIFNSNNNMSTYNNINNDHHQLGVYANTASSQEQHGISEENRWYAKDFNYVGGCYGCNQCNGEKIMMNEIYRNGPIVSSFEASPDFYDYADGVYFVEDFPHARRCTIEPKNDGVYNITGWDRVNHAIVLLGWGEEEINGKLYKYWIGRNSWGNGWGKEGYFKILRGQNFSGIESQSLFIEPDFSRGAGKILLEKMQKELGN

| Compound | % Inhibition @ 10 uM |
| --- | --- |
| C=CCNC(=O)c1ccccc1NS(=O)(=O)c1ccc(OC)c(Cl)c1Cl | -6.08% |
| Cc1cc(-c2ccccc2)nc2cc(C(N)=O)nn12 | 7.85% |
| O=C(c1cc2ccc3cccnc3c2[nH]1)N1CCN(C(=O)c2ccco2)CC1 | 4.6% |
| Cc1nc2ccccc2c(=O)n1-c1ccccc1O | -3.44% |
| CC(C)(C)C1CCC(OCC(O)CN2CCOCC2)CC1 (stereo not drawn) | 3.15% |
| OCCN1CCN(Cc2ccc3ccccc3c2)CC1 | 3.85% |
| COc1cc(OC)c([C@H]2C=C(C)[C@H]3C[C@@H]2C3(C)C)c(OC)c1 | -9.66% |
| Cc1cccc(OCC(=O)Nc2cccc(O)c2)c1 | 1.33% |
| CCC(=O)N1c2ccccc2N=C2CC(C)(C)CC(O)=C2C1c1ccccc1F (stereo not drawn) | -2.54% |
| Cc1ccc([N+](=O)[O-])cc1NC1=NS(=O)(=O)c2ccccc21 | -5.96% |
| COc1ccc(/C=c2/sc3nc4ccccc4n3c2=O)cc1OC | -6.74% |
| CCCC(=O)Nc1nn2c(-c3ccccc3C)nnc2s1 | -1.56% |
| CCc1nn(CC(=O)N2CCC(C(N)=O)CC2)c(=O)c2cc3sccc3n12 | 3.4% |
| COc1cc(CN2CC(C)OC(C)C2)cc2c1OCO2 (stereo not drawn) | -3.27% |
| Cc1ccc(S(=O)(=O)/N=S(\Cc2ccccc2)CC2CC2(Cl)Cl)cc1 (stereo not drawn) | -0.0626% |
| Cc1ccnc(NC(=O)CC/N=c2/c(N3CCCC3)c(O)c2=O)c1 | -1.72% |
| C=C1C(C(=O)Nc2ccc(N3CCCCC3)cc2)C1C(=O)Nc1ccc(N2CCCCC2)cc1 (stereo not drawn) | 1.71% |
| Cc1ccc(S(=O)(=O)[C@@H]2CCCC[C@H]2O)cc1 | 0.812% |
| COc1cc2c(cc1OC)C(c1cccc(F)c1)N(C)CC2 (stereo not drawn) | -6.12% |
| CCC(C)NC(=O)c1cc2nc(-c3ccc(C)cc3)cc(C(F)(F)F)n2n1 (stereo not drawn) | -1.1% |
| O=c1n(CN2CCOCC2)nc2n1-c1ccccc1SC2 | 23.5% |
| Cc1ccc(NC(=O)COc2cccc3ccc(C)nc23)c(Br)c1 | 3.49% |
| COC(=O)CCC1(C)CN(C)CCC1=O (stereo not drawn) | 1.13% |
| CCOC(=O)N1CCN(c2c(N3CCc4ccccc4C3)c(=O)c2=O)CC1 | 0.277% |
| O=C(Nc1ccccc1)NC1CCCCCCC1 | -7.56% |
| O=C(CCN1C(=O)c2ccccc2C1=O)N1CCOCC1 | 3.04% |

| Compound | % Inhibition @ 10 uM |
| --- | --- |
| CCn1c2ccccc2c2cc(NC(=O)COc3ccc(C)cc3)ccc21 | -3.48% |
| Cc1cc(=O)n2c(C)csc2n1 | 2% |
| Cc1ccccc1N1C(=O)C2C3CCC(C3)C2C1=O (stereo not drawn) | 0.992% |
| CC(NC(=O)CN1N=C(c2ccccc2)Oc2ccccc2C1=O)c1ccccc1 (stereo not drawn) | -2.11% |
| CC/N=C1\S/C(=C\c2cccn2-c2ccc(N(C)C)cc2)C(=O)N1CC | 2.48% |
| c1coc(CN(Cc2ccco2)c2ncnc3c2oc2ccccc23)c1 | 0.605% |
| COc1ccccc1-c1cnc(OC(C)(C)C)nc1OC(C)(C)C | -5.21% |
| COc1ccc(-n2ncc3c(NCc4cccs4)ncnc32)cc1 | 7.33% |
| CCC(C(=O)O)n1nc(C)c2c(C)n(-c3ccc(C)cc3)nc2c1=O (stereo not drawn) | -0.0309% |
| O=C(CN1C(=O)c2ccccc2C1=O)NC1CCCCNC1=O (stereo not drawn) | 0.238% |
| COc1ccc(NC(=O)CN(c2cccc(OC)c2)S(=O)(=O)c2ccccc2)cc1 | 3.17% |
| O=C(COc1ccccc1)NC(Cc1ccccc1)C(=O)O (stereo not drawn) | 2.05% |
| Cc1ccc(-n2cnnn2)c(Br)c1 | -3.49% |
| COc1ccccc1C1C(C(=O)c2ccccc2)=C(O)C(=O)N1Cc1cccnc1 (stereo not drawn) | 4.66% |
| CC(C)NC(=O)C1CCCN(S(=O)(=O)N2CCC3(CC2)OCCO3)C1 (stereo not drawn) | 0.0525% |
| CC(C)C[C@H](NC(=O)c1ccccc1C1CCCCC1)C(=O)NCC#N | 3.19% |
| CCOC(=O)N1CCC(NS(=O)(=O)c2ccc(-c3cc(C(F)(F)F)no3)s2)CC1 | 3.41% |
| Cc1c2cnn(CC(=O)NCCC(C)C)c(=O)c2c(C)n1Cc1ccccc1Cl | 1.22% |
| O=C(O)/C=C/c1ccc(S(=O)(=O)NCCO)cc1 | -6.83% |
| CC(=O)Nc1ccc(-c2csc(-c3c[nH]c4ccccc34)n2)cc1 | 46.6% |
| O=C(/C=C\Nc1ccc2c(c1)OCO2)c1ccc2c(c1)OCO2 | -1.07% |
| CCOc1ccc(N2C(=O)c3ccccc3NC2c2cc(OC)ccc2O)cc1 (stereo not drawn) | -3.19% |
| N=C1/C(=C\c2ccco2)C(=O)N=C2SC(N3CCOCC3)=NN12 | -3.44% |
| Cc1cc(O)c(C2=Nc3ccccc3SC(c3cc(Cl)cc(Cl)c3O)C2)c(=O)o1 (stereo not drawn) | -2.02% |
| O=S1(=O)CC=C(CNCc2ccccc2)C1 | -0.424% |
| CN(Cc1ccccc1)Cc1ccccn1 | -6% |

| Compound | % Inhibition @ 10 uM |
| --- | --- |
| Nc1cc(O)nc2nnc(SCc3ccc(Cl)cc3Cl)n12 | -4.85% |
| CCCCN(C)S(=O)(=O)c1cc(-c2nn(C)c(=O)c3ccccc23)ccc1C | 5.3% |
| Cc1ccc(NC(=O)C(=O)NC2CCCCC2)cc1C | -4.01% |
| COc1ccc2occ(CC(=O)Nc3sc4c(c3C#N)CCCC4)c2c1 | -1.53% |
| CC(=O)c1ccc2c(c1)N(C)c1ccccc1S2 | 3% |
| O=C(NCCN1CCOCC1)c1ccccc1Br | -9.7% |
| Nc1c(Cl)ncnc1NCCCn1ccnc1 | -1.52% |
| COc1ccc2c(CNCCc3ccc(OC)c(OC)c3)c(C(=O)O)n(C)c2c1 | 5.43% |
| O=S(=O)(c1ccc(F)cc1)N1CCCC(CO)C1 (stereo not drawn) | -0.551% |
| CCn1nc(-c2cccc(Cl)c2)nc2c(=O)n(C)c(=O)nc1-2 | 2.19% |
| O=C1c2[nH]nc(-c3ccccc3O)c2C(c2cccc(Br)c2)N1CCCO (stereo not drawn) | 9.54% |
| O=C(Cn1nc(-c2ccccc2)ccc1=O)NCCCN1CCOCC1 | -4.83% |
| COc1ccc(S(=O)(=O)Nc2c(O)oc3ccccc3c2=O)cc1OC | 3% |
| COc1cc(CNC(C)(C)CO)cc(Cl)c1OCc1ccc(F)cc1 | 7.74% |
| CCc1ccc(S(=O)(=O)NCc2csc(-c3ccccc3)n2)cc1 | 2.57% |
| CNc1nc(C(N)=O)nc(N2CCOCC2)n1 | 0.778% |
| CCOC(=O)c1cc(CC)sc1NC(N)=O | -0.273% |
| O=C(Nc1ccc(C(=O)N2CCCCC2)cc1)c1ccc(Br)cc1 | 3.53% |
| CC(C)C[C@H](NC(=O)c1ccnc(N(C)C)c1)C(=O)NCC#N | 0.744% |
| CCC(C)[C@H](NC(=O)N1CCN(C)CC1)C(=O)N[C@H]1CCN(Cc2ccccc2)C1 (stereo partly drawn) | -0.778% |
| NS(=O)(=O)c1ccc(CCNC(=O)c2cccc(Cl)c2)cc1 | -12.8% |
| Cc1cc(=O)oc2c1c(C)nn2-c1nn[nH]n1 | -5.51% |
| NC(=O)c1c(NC(=O)c2cccs2)sc2c1CCC2 | 1.57% |
| Cn1c(=O)c2c(nc3n(CC(O)c4ccccc4)c(-c4ccc(Br)cc4)cn23)n(C)c1=O (stereo not drawn) | -0.0925% |
| CC(C)CN1C(=O)c2ccccc2C(C(=O)Nc2ccc(Cl)cn2)C1c1cccs1 (stereo not drawn) | -6.87% |
| O=C(CCn1c(=O)c2cccn2c2cccnc21)N1CCN(Cc2ccccc2)CC1 | 7.39% |

| Compound | % Inhibition @ 10 uM |
| --- | --- |
| COc1ccc(-c2nc(-c3ccc(OC)cc3)c(-c3ccc(OC)cc3)[nH]2)cc1 | -0.0369% |
| CCOC(=O)C1=C(CN2CCC3(CC2)OCCO3)NC(=O)NC1c1ccco1 (stereo not drawn) | 2.39% |
| CCOC(=O)c1c(C)c(-c2ccccc2)n(CC(=O)NC(C)c2ccccc2)c1C (stereo not drawn) | 0.0579% |
| CC(C)Nc1nc(Nc2ccc([N+](=O)[O-])cc2)nc(OC(C(F)(F)F)C(F)(F)F)n1 | 3.34% |
| CCN1C(=O)C(CC(=O)Nc2ccccc2)S/C1=N\c1ccc(Br)cc1 (stereo not drawn) | -1.61% |
| COc1ccccc1CNCc1ccoc1 | 0.177% |
| CC1CCc2c(O)nc3ccccc3c2O1 (stereo not drawn) | 0.385% |
| COc1ccc(C2CC(C(F)(F)F)n3nc(C(=O)N4CCCCC4C)c(Cl)c3N2)cc1OC (stereo not drawn) | 6.42% |
| COc1ccc(C2NCCC3(O)CCCCC23)cc1Br (stereo not drawn) | -5.48% |
| CC(C)(Oc1ccc2sc3ccccc3c2c1)C(=O)O | -4.72% |
| O=C(c1cc2ccccc2oc1=O)N(Cc1ccccc1F)C1CCS(=O)(=O)C1 (stereo not drawn) | 5.17% |
| Cc1ccc(CNC(=O)C2CCC(CNS(=O)(=O)c3cccc4nsnc34)CC2)cc1 (stereo not drawn) | -0.465% |
| O=C(NC(n1cnc2c(N3CCOCC3)ncnc21)C(Cl)(Cl)Cl)c1ccccc1 (stereo not drawn) | 2.79% |
| Cn1c(=O)c2nc(Cl)n(Cc3ccccc3)c2n(C)c1=O | -8.76% |
| O=C(NCCc1ccccc1)c1ccc(Cl)s1 | -0.413% |
| O=C(Nc1cccc(O)c1)c1nn2c(c1Cl)NC(c1cccs1)CC2C(F)(F)F (stereo not drawn) | -2.87% |
| OC(c1ccccc1)(c1ccccc1)c1nccn1Cc1ccccc1 | -0.0505% |
| OCCNCc1ccccc1OCc1ccccc1F | -3.5% |
| CNc1ccc(C(=O)N[C@@H](CC(C)C)C(=O)NCC#N)cc1 | 0.174% |
| COc1ccc(/C=C/C2=NN(c3ccc(Cl)cc3Cl)C(c3ccc(OC)cc3)C2)cc1 (stereo not drawn) | -0.999% |
| CC(=O)ON(Cc1c(C)no[n+]1[O-])Cc1c(C)no[n+]1[O-] | -3.41% |
| C=CCNC(=O)/C(=C/c1ccc(Cl)cc1)NC(=O)c1ccccc1 | 2.3% |
| COc1ccc(-c2cc(C(=O)Nc3cc(C)n(CC(=O)NCc4ccco4)n3)on2)cc1OC | 3.27% |
| CCOC(=O)c1c(NC(=O)Nc2nnc(N(C)Cc3ccccc3)s2)sc2c1CCCC2 | 3.87% |
